Out of some 310,000 compounds screened, about 2,200 (0.71%) showed an effect of 50% or more. Effects have a minus sign here. The list shows a part of the results.
Target: human ether-à-go-go-related gene (hERG) potassium channel (human, UniProt Q12809)
Assay: primary screen, population patch clamp on CHO cells stably expressing hERG

human ether-à-go-go-related gene (hERG) potassium channel, sequence (Q12809 whole entry, looked up): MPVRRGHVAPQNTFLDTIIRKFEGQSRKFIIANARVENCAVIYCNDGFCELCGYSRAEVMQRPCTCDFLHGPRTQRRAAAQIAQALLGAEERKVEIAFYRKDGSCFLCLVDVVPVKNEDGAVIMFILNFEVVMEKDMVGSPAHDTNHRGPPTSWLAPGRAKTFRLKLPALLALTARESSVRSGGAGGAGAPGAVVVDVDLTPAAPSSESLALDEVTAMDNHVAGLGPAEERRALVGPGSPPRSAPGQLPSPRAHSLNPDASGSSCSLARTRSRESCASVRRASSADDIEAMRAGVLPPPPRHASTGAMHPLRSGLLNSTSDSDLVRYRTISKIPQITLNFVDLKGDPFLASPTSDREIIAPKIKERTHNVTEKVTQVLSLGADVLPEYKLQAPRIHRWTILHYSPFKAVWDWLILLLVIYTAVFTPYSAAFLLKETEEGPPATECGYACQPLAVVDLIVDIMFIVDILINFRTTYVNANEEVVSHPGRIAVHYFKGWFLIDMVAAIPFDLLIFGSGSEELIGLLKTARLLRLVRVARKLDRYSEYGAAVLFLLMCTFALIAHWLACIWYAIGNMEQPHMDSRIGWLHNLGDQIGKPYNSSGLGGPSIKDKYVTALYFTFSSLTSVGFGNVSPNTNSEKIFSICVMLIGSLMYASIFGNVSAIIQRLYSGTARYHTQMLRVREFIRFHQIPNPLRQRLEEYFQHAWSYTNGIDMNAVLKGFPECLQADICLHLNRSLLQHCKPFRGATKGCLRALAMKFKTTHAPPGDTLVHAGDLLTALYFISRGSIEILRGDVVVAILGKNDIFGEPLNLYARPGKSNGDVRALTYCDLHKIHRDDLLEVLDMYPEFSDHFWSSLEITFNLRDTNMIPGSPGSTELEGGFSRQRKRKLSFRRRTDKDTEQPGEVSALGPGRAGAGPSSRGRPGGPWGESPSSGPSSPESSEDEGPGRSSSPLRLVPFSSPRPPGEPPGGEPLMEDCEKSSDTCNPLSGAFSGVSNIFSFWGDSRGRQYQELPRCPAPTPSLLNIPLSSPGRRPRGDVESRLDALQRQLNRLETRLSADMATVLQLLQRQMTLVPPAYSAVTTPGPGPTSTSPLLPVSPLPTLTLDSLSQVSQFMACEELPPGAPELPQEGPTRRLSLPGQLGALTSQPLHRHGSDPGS

First: O=C(NCc1ccco1)/C(=C\c1cccs1)NC(=O)c1ccccc1
Second: O=C(Cc1ccccc1)N/N=C/c1ccc2cccc(O)c2n1
The “hERG current change (%, negative = inhibition) at 1uM” value of the first is higher: 3.71% for the first, 0.782% for the second.

Going from `COc1ccccc1NC(=O)Nc1nnc(CC(=O)Nc2ccccc2C)s1` to `CCCN1Cc2cccc(C(=O)NCc3ccccc3OC)c2C1=O`, the “hERG current change (%, negative = inhibition) at 1uM” value falls from 17.6% to -2.87%.

Compared with `CCOC(=O)c1nnc(-c2ccc(C)cc2)nc1Sc1cccc(Cl)c1`, `CCOC(=O)CNc1c(-c2ccc(O)cc2)nc2ccccn12` is lower in “hERG current change (%, negative = inhibition) at 1uM” value: -0.239% for the first, -5.62% for the second.

First: CC(C)c1ccc2oc(=O)cc(CN3CCN(c4ccc(F)cc4)CC3)c2c1
Second: COc1ccc(N2CCN(C(c3cccs3)C(C)NC(=O)C(=O)N3CCOCC3)CC2)cc1 (centres unmarked)
The “hERG current change (%, negative = inhibition) at 1uM” value of the first is lower: 2.8% for the first, 16.6% for the second.

Compared with `CCCn1c(SCC(=O)Nc2cccc(C(=O)OC)c2)nnc1-c1cccnc1`, `CCOC(=O)c1ccc(NC(=O)c2cccnc2)cc1` is higher in “hERG current change (%, negative = inhibition) at 1uM” value: -22.5% for the first, 16.5% for the second.

Going from `CCOC(=O)c1ccc2c(c1)n(Cc1ccccc1)c(C)[n+]2CC.[O-][Cl+3]([O-])([O-])[O-]` to `CCn1c2ccccc2c2cc(NC(=O)c3cc(C)on3)ccc21`, the “hERG current change (%, negative = inhibition) at 1uM” value rises from 1.03% to 5.94%.

Going from `CC1CCN(C(=O)Nc2cccc(NC(=O)N3CCC(C)CC3)c2)CC1` to `CC(C)NC(=O)N1CCN(c2ccncc2S(=O)(=O)N2CCOCC2)CC1`, the “hERG current change (%, negative = inhibition) at 1uM” value falls from 9.36% to 2.54%.

First: CC1(C(=O)O)C=CCN1C(=O)c1ccccc1 (centres unmarked)
Second: CC(C)(C)NC(=O)C(c1ccccc1)N(C(=O)C1CSC(=O)C1)c1ccccc1 (centres unmarked)
The “hERG current change (%, negative = inhibition) at 1uM” value of the first is higher: 11.7% for the first, 8.06% for the second.

Going from `CNC(=O)c1c(O)c2cccc3c2n(c1=O)CCC3` to `Cc1nc(SCC(=O)N2CCCc3ccccc32)c2oc3ccccc3c2n1`, the “hERG current change (%, negative = inhibition) at 1uM” value falls from 13.4% to 12.1%.

Compared with `O=C1SCCC1NS(=O)(=O)c1ccccc1[N+](=O)[O-]` (centres unmarked), `COC(=O)c1ccccc1S(=O)(=O)Nc1ccc(OC)nc1` is lower in “hERG current change (%, negative = inhibition) at 1uM” value: 13.3% for the first, 3.51% for the second.

Going from `C#CCNC(=O)C1=C[C@H](c2ccc(Br)cc2)[C@@H](CCCO)[C@H](OCC)O1` to `CCCCn1c(N)c(N(CCOC)C(=O)c2ccc(-c3ccc([N+](=O)[O-])cc3)o2)c(=O)[nH]c1=O`, the “hERG current change (%, negative = inhibition) at 1uM” value falls from 11.3% to 11%.

First: CCCCn1c(N)c(N(CC(C)C)C(=O)C2CSC3(C)CCC(=O)N23)c(=O)[nH]c1=O (centres unmarked)
Second: CCOC(=O)c1[nH]c(C)c(C(=O)C(C)C)c1C
The “hERG current change (%, negative = inhibition) at 1uM” value of the first is higher: 23.4% for the first, 13.9% for the second.

Compared with `Cc1cc(C(=O)Nc2ccc(N3CCOCC3)c3nonc23)ccc1[N+](=O)[O-]`, `CCOc1ccc(CCNC(=O)C2CCN(c3ccc(N4CCOCC4)nn3)CC2)cc1OCC` is lower in “hERG current change (%, negative = inhibition) at 1uM” value: 9.36% for the first, 2.39% for the second.

Going from `Cc1nc2ccc(NC(=O)c3ccc(Br)o3)cc2s1` to `Cc1nc(-c2nnc(SCC(=O)Nc3ccc(C(F)(F)F)cc3)n2C)cs1`, the “hERG current change (%, negative = inhibition) at 1uM” value falls from 8.64% to 8.2%.

Compared with `COc1ccc(S(=O)(=O)NC(C)C(=O)NCc2ccncc2)cc1Cl` (centres unmarked), `COc1ccc(CCN2C(=O)NC(NS(=O)(=O)c3ccc(Cl)cc3)(C(F)(F)F)C2=O)cc1OC` (centres unmarked) is lower in “hERG current change (%, negative = inhibition) at 1uM” value: 13.7% for the first, 11.7% for the second.

Compared with `O=c1cc(O)c2c(=O)n(-c3ccccc3)c3ccccc3c2o1`, `CCCn1c(=O)c2ccccc2n2c(SCCOc3ccccc3F)nnc12` is lower in “hERG current change (%, negative = inhibition) at 1uM” value: 12.2% for the first, 2.21% for the second.

First: O=C(COC(=O)c1ccc(-c2ccc([N+](=O)[O-])cc2)o1)NC(=O)NC1CCCCC1
Second: CC(C)NC(=O)NC(=O)COC(=O)CCCSc1nc2ccccc2s1
The “hERG current change (%, negative = inhibition) at 1uM” value of the first is lower: 3.83% for the first, 8.89% for the second.

First: Cc1cccc(-n2c(C)cc(/C=C3\NC(=O)NC3=O)c2C)c1
Second: Cc1cccc(-n2ncc3c2CCCC3NC(=O)CCc2cccnc2)c1C (centres unmarked)
The “hERG current change (%, negative = inhibition) at 1uM” value of the first is lower: 14.1% for the first, 14.5% for the second.

First: COc1ccc(NC(=S)N(CCc2ccc(OC)c(OC)c2)Cc2ccccn2)cc1
Second: CC(O)C(=O)O.COc1ccc(CN(CC(O)COc2cccc3[nH]cc(C)c23)C(C)(C)C)cc1 (centres unmarked)
The “hERG current change (%, negative = inhibition) at 1uM” value of the first is higher: 0.952% for the first, -31% for the second.

First: OCCC1CN(Cc2cccc3nonc23)CCN1Cc1ccsc1 (centres unmarked)
Second: NC(=O)C1CCN(C(=O)CCSc2ccccc2)CC1
The “hERG current change (%, negative = inhibition) at 1uM” value of the first is lower: -15.7% for the first, 5.63% for the second.

First: Cc1ccccc1NC(=O)CCl
Second: FC(F)(F)C12CC(c3ccccc3)=NCCN1CCN2 (centres unmarked)
The “hERG current change (%, negative = inhibition) at 1uM” value of the first is lower: 12.8% for the first, 14.6% for the second.

Compared with `Nc1ncnc2c1ncn2C1CCCO1` (centres unmarked), `CC(C)N1CCC2(CC1)NC(CO)(CO)CO2` is higher in “hERG current change (%, negative = inhibition) at 1uM” value: 12.1% for the first, 17.2% for the second.

Source: article PMC4336329 (PLoS ONE, 2015)
